Here are results for 88 molecules from publication PMC4336329 (PLoS ONE, 2015).

In all, about 310,000 compounds went through this assay and about 2,200 (0.71%) showed an effect of 50% or more. The effect is printed as a negative number. The list shows a part of the results.

Sequence of human ether-à-go-go-related gene (hERG) potassium channel (Q12809 whole entry, looked up): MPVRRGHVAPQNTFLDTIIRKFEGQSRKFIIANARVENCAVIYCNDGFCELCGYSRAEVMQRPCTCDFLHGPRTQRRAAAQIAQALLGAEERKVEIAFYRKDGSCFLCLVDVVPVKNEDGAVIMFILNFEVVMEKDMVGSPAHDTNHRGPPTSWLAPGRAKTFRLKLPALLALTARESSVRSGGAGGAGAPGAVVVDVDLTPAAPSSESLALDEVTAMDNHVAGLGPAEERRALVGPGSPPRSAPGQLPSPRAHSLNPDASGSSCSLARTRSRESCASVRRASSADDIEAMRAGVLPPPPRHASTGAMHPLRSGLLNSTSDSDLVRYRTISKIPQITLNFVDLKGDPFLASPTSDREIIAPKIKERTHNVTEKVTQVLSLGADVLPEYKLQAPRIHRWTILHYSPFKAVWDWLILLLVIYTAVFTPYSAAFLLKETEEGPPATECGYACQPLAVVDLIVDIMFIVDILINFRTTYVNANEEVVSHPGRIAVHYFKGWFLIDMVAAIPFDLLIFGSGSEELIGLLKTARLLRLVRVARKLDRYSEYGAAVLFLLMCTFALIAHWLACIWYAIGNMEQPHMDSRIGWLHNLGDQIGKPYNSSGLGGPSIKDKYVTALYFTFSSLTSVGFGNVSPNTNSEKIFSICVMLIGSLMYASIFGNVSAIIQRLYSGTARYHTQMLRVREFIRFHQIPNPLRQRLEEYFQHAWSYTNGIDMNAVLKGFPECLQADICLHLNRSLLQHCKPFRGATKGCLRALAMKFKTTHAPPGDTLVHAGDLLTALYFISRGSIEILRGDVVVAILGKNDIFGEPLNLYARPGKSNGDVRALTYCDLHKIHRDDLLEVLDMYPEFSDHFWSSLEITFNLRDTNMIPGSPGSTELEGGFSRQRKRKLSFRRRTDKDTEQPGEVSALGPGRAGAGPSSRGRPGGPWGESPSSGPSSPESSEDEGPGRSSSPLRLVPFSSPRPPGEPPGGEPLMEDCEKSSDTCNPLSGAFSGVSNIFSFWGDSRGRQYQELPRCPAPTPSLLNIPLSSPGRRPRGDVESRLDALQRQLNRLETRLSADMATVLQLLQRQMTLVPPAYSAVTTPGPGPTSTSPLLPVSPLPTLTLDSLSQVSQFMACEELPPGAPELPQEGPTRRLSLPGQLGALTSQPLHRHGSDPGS

The target of the assay is human ether-à-go-go-related gene (hERG) potassium channel (human, UniProt Q12809). Nature of the assay: primary screen, population patch clamp on CHO cells stably expressing hERG. On the procedure:
Briefly, Chinese hamster ovary (CHO) cells stably expressing the hERG channel were dislodged from tissue culture flasks and dispensed into PPC plates. […] During the recording, background leak currents were estimated by a 100 ms step to -80 mV from an initial holding potential of -70 mV and subtracted from the subsequent current measurement. The campaign was conducted in two phases using slight differences in recording protocol. In the first phase, the initial voltage pulse used a 100 ms step to -30 mV from a holding potential of -70 mV, a 2 s conditioning step to +25 mV, and a 2 s test step to -30 mV. During the second phase of the screen, the potential during the conditioning step was raised to +45 mV. In both phases of the campaign, a secondary voltage pulse was applied using the same parameters as the second phase initial pulse. The initial and secondary pulses were applied in the absence of compound, and upon application of 1 μM and 10 μM test concentrations. Small molecule effects on hERG current density were quantified by […].
For the molecule `O=C(CNC(=O)c1ccccc1)NCC(=O)OCC(=O)c1ccc(F)cc1`, the “hERG current change (%, negative = inhibition) at 1uM” value was 4.44%.

With `CCOc1ccc(OCC)c(NC(=O)CCNS(=O)(=O)c2cc(Br)cnc2N)c1`, the “hERG current change (%, negative = inhibition) at 1uM” value was 7.76%.

Regarding `COc1cccc(OC)c1C(=O)NCCN1CCN(C(=O)c2c(OC)cccc2OC)CC1`, the “hERG current change (%, negative = inhibition) at 1uM” value is on record as 16.7%. The value for `CC1CCN(C(=S)NC(=O)c2ccccc2)CC1` was -6.35%; that for `CCNc1nc(Cl)nc(N(NC(C)=O)C(C)C)n1` was 16.7%; that for `CCCN(CCC)C(=O)CSc1nc2n[nH]c(C)c2c(=N)n1-c1ccc(OC)cc1` was 1.56%. Take `COc1ccc(C2c3c(oc4ccccc4c3=O)C(=O)N2Cc2ccncc2)cc1OC` (stereo not shown): the “hERG current change (%, negative = inhibition) at 1uM” value was found to be 5.97%.

As to `Cc1ccc(S(=O)(=O)NCc2ccccc2)cc1C(=O)N1CCN(c2ccccc2)CC1`, the “hERG current change (%, negative = inhibition) at 1uM” value was -2%. The value for `COc1ccc(C2=CC(=O)CC(c3ccc(OC)cc3)C2)cc1` (stereo not shown) was 9.13%; that for `COc1ccc(Cc2nnc(NC(=O)c3ccccc3C)s2)cc1` was 7.37%.

For the molecule `CC(C)Oc1ccc(CNC(=O)CC(c2ccccc2)c2cc(Cl)ccc2O)cc1` (stereo not shown), the “hERG current change (%, negative = inhibition) at 1uM” value was determined as 12.4%.

Turning to `CCNCCNC(=O)c1c(O)c2cccc3c2n(c1=O)CCC3.Cl`, the “hERG current change (%, negative = inhibition) at 1uM” value is reported as -1.5%.

In the case of `Cc1cccc(/C(N)=N/OC(=O)c2ccc(Br)o2)c1`, the “hERG current change (%, negative = inhibition) at 1uM” value is on record as 9.79%.

For `Cc1ccccc1NC(=O)CC1C(=O)Nc2ccccc2N1CC(=O)N(C)C1CCS(=O)(=O)C1` (stereo not shown), the “hERG current change (%, negative = inhibition) at 1uM” value is recorded as 11.6%. Take `O=C(NCc1ccccc1)c1onc(CSc2nc3ccccc3[nH]2)c1C(=O)NCc1ccccc1`: the “hERG current change (%, negative = inhibition) at 1uM” value is 16.2%.

As for `C/C(=N\NC(=O)C(O)c1ccccc1)c1cccnc1` (stereo not shown), the “hERG current change (%, negative = inhibition) at 1uM” value turned out to be 16%.

`O=C(O)c1cccc(N2C(=O)c3cccc4cccc(c34)C2=O)c1`: the “hERG current change (%, negative = inhibition) at 1uM” value amounted to 10.6%.

Consider `CCOc1ccccc1N(CC(=O)NC1CCCC1)C(=O)CCCC(=O)Nc1ccccn1`, for which the “hERG current change (%, negative = inhibition) at 1uM” value stood at 7.65%.

On to `Cc1cc(C)n(C(=O)c2ccc(C)c(S(=O)(=O)N3CCCC3)c2)n1`, for which the “hERG current change (%, negative = inhibition) at 1uM” value is on record as 14.4%. The value for `O=C(Nc1ccc(C(=O)Nc2ccccc2Cl)cc1)c1cccnc1` was 8.84%; that for `Cc1cc([N+](=O)[O-])ccc1NC(=O)CSc1nncn1-c1cccnc1` was 0.276%; that for `CC(C)CNC(=O)c1ccccc1NC(=O)c1ccc(CSc2ccccc2)cc1` was 3.65%. In the case of `Cc1nnc(-c2cnn(C)c2N)n1Cc1ccccc1F`, the “hERG current change (%, negative = inhibition) at 1uM” value came out at 16.3%. The value for `CN(C)c1nc(Nc2ccc(Cl)c(Cl)c2)nc(N(C)C)n1` was 8.79%; that for `Cc1cc(C)c(C)c(S(=O)(=O)Nc2cccnc2)c1C` was 9.46%. The value for `CCCC1CCC(C(=O)Nn2cnc3ccccc3c2=O)CC1` (stereo not shown) was 3.38%; that for `O=C(COc1ccccc1Br)NC1CC1` was 4.04%; that for `Cc1cc(Cl)ccc1C(=O)C1CCCN(C(=O)c2n[nH]c3c2CCCC3)C1` (stereo not shown) was 13%. The value for `CCOC(=O)c1[nH]c2cc3c(cc2c1NC(=O)CN1CCN(CCO)CC1)OCO3` was -0.67%; that for `COc1ccc(OC)c(Nc2nc(N)nc(CSc3nnc(N)s3)n2)c1` was 1.4%; that for `O=C(N/N=C/c1cccs1)C(O)c1ccccc1` (stereo not shown) was 14.4%. For the molecule `CCN(CC)c1cccc(OCC(=O)N2c3ccccc3CC2C)c1` (stereo not shown), the “hERG current change (%, negative = inhibition) at 1uM” value is recorded as -1.79%.

Consider `CNNCc1ccc(C(=O)NC(C)C)cc1.Cl`, for which the “hERG current change (%, negative = inhibition) at 1uM” value is reported as 13.3%. The value for `Cc1onc(-c2ccccc2)c1C(=O)NC(CC(=O)O)c1ccc(OC(C)C)cc1` (stereo not shown) was 9.91%; that for `O=C(c1ccc(OC2CCN(CCc3ccccc3)CC2)cc1)N1CCCC(CCCO)C1` (stereo not shown) was 9.15%; that for `COc1ccccc1OCC(=O)Nc1cc2c(cc1C(=O)O)OCCCO2` was 11.9%. As to `CCN(c1cccc(C)c1)S(=O)(=O)c1ccc2c(c1)N(C(C)=O)CCS2`, the “hERG current change (%, negative = inhibition) at 1uM” value was determined as 2.7%. The value for `COc1ccc(N2CCN(C(=O)Cc3cccs3)CC2)cc1` was 13.8%; that for `COc1ccccc1NC(=O)C1=C(C)N(c2ccccc2)C(=S)NC1c1cccc(C(F)(F)F)c1` (stereo not shown) was 1.92%; that for `S=C(Nc1cccc(Cl)c1)NC1CC2CCCC(C1)N2C1CCCC1` (stereo not shown) was 17.4%. For the molecule `COc1ccccc1NS(=O)(=O)c1cc2c3c(c1)CCN3C(=O)CC2`, the “hERG current change (%, negative = inhibition) at 1uM” value was found to be 9.25%. The value for `Cc1ccc(/C=N/NC(=O)CCSc2ccccc2)cc1` was 8.25%; that for `CC(C)[C@H](NC(=O)c1ccc(F)cc1)C(=O)OCC(=O)NC(=O)c1cccn1C` was -6.57%. The value for `COc1ccc(S(=O)(=O)Nc2nc3ccccc3s2)cc1OC` was 8.18%; that for `Cc1cc(C(F)(F)F)nn1CC(=O)NNC(=S)Nc1cccc(Cl)c1` was 13.6%. The value for `O=[N+]([O-])c1cc(Cl)ccc1Sc1cccc2cccnc12` was 12.2%; that for `O=C(COc1ccccc1[N+](=O)[O-])NCCC1=CCCCC1` was 12%. On to `Cc1cc2n(n1)C(c1ccsc1)Nc1ccccc1-2` (stereo not shown), for which the “hERG current change (%, negative = inhibition) at 1uM” value is given as -10.9%. Take `CCN(CC)c1nc2cc(OC)ccc2cc1C#N`: the “hERG current change (%, negative = inhibition) at 1uM” value is 6.59%.

For the molecule `COc1ccc(S(=O)(=O)N2CC(=O)Nc3ccccc32)cc1Cl`, the “hERG current change (%, negative = inhibition) at 1uM” value is reported as 14.5%.

For `COc1ccc(C=O)cc1OS(=O)(=O)c1ccccc1[N+](=O)[O-]`, the “hERG current change (%, negative = inhibition) at 1uM” value came out at 9.7%. The value for `C=CCn1c(SCC(=O)Nc2ccc(NC(C)=O)cc2)nc2sc(C)c(C)c2c1=O` was 10.6%; that for `CCOC(=O)c1ccccc1NC(=O)Cn1cnc2c(cnn2-c2ccccc2)c1=O` was -2.5%; that for `COc1ccc(C)cc1S(=O)(=O)Nc1cccc(SC)c1` was 4.83%. The value for `CC(CC(=O)Nc1ccc(F)cc1)S(=O)(=O)c1ccc2c(c1)NC(=O)CO2` (stereo not shown) was 13.4%; that for `Cn1cc(C(=O)NCCO)c(=O)c2ccccc21` was 3.93%; that for `O=C(O)c1ccc(COc2ccccc2C=C2C(=O)c3ccccc3C2=O)cc1` was 12.8%. The value for `CCOc1ccc(N(C(C)C(=O)N2CCOCC2)S(C)(=O)=O)cc1` (stereo not shown) was 10.8%; that for `COc1cccc(C2C(C#N)=C(N)Oc3cc(C)n(Cc4ccccn4)c(=O)c32)c1OC` (stereo not shown) was -1.52%; that for `Cc1ccc(CNC(=O)c2nc3nc(C)cc(C)n3n2)cc1` was 20.5%. As to `CCOC(=O)c1c(NC(=O)CSc2nnc(Cc3csc(N)n3)n2C)sc(C)c1C`, the “hERG current change (%, negative = inhibition) at 1uM” value is recorded as 9.13%. The value for `O=S(=O)(c1ccc(Cl)cc1)N(Cc1ccccn1)Cc1ccccn1` was 8.39%. The value for `COc1ccc(/C=N/NC(=O)c2ccc(Cl)cc2)cc1Cn1cc(Cl)cn1` was 12%; that for `Cc1nc(C)c(C(=O)Nc2cccc(F)c2)s1` was 13.9%. The value for `O=C(CN1C(=O)C2CC=CCC2C1=O)NC1CCCCC1` (stereo not shown) was 15.9%; that for `CCCCc1ccc(NC(=O)CSc2nnc(C)c(=O)n2N)cc1` was 7.02%; that for `O=C(NC(NCc1ccccc1)C(Cl)(Cl)Cl)c1cccnc1` (stereo not shown) was 12.2%. In the case of `CC(=O)N1CCC(C(=O)NC2CC(C)(C)Cc3c2cnn3-c2ccc(F)cc2)CC1` (stereo not shown), the “hERG current change (%, negative = inhibition) at 1uM” value is -11.3%. For the molecule `O=C(c1ccc(N2CC3CC(C2)c2cccc(=O)n2C3)c([N+](=O)[O-])c1)N1CCCCC1` (stereo not shown), the “hERG current change (%, negative = inhibition) at 1uM” value was -8.5%. The value for `CN(Cc1ccc(F)cc1)C(=O)c1cccc(S(=O)(=O)N2CCN(Cc3ccccc3)CC2)c1` was 5.98%; that for `COc1cccc(-n2nnnc2SCC(=O)N2CCCc3ccccc32)c1` was 12.1%; that for `NS(=O)(=O)c1ccc(CCNc2ncnc3c2c(-c2ccccc2)cn3-c2ccc(F)cc2)cc1` was 14.4%. For the molecule `CN(C)C(=O)c1ccc(NC(=O)COC(=O)CC23CC4CC(CC(Br)(C4)C2)C3)cc1`, the “hERG current change (%, negative = inhibition) at 1uM” value was 6.61%. The value for `CCC1(C(=O)c2ccc(Cl)cc2)C2c3ccccc3OC(=O)C21C(=O)Nc1ccccc1` (stereo not shown) was 5.58%.

In the case of `O=C(Cn1nnc(-c2ccccc2)n1)N/N=C/c1cccc([N+](=O)[O-])c1`, the “hERG current change (%, negative = inhibition) at 1uM” value amounted to 2.73%.

As for `N#C/C(=C\c1ccc(-c2ccc([N+](=O)[O-])cc2)o1)C(=O)Nc1nc(-c2cccs2)cs1`, the “hERG current change (%, negative = inhibition) at 1uM” value was found to be 9.95%.

In the case of `Nc1nc(Cl)cc(Sc2ccc(F)cc2)n1`, the “hERG current change (%, negative = inhibition) at 1uM” value was 5.47%. The value for `COc1ccc(CCNc2ccc(N3C(=O)CC(C)C3=O)cc2[N+](=O)[O-])cc1` (stereo not shown) was 10.5%; that for `Cn1cnnc1SCC(=O)n1c2ccccc2c2ccccc21` was 14%.

Turning to `c1ccc(-c2ccc(-n3ccnc3)cc2)cc1`, the “hERG current change (%, negative = inhibition) at 1uM” value is reported as 4.72%. Regarding `CCn1c(CNc2ccc(Cl)cc2)nnc1SCC#N`, the “hERG current change (%, negative = inhibition) at 1uM” value is given as 13.6%. The value for `CCCCn1c(C)c(C(=O)O)c2cc(OC)ccc21` was 7.97%; that for `COc1ccccc1N=Nc1c(C)noc1C` was 6.79%. The value for `CC(=O)Nc1ccc(SCC(=O)c2cc(C)n(CC(F)(F)F)c2C)cc1` was 12.2%; that for `C/C(N)=C(/C#N)C(=O)CSc1nnc(Nc2cccc(C)c2C)s1` was 9.7%; that for `COc1ccc(S(=O)(=O)N(Cc2cc3ccc(OC)cc3[nH]c2=O)CC2COCCO2)cc1` (stereo not shown) was -13.9%. The value for `COc1ccc(OC)c(S(=O)(=O)NC2CC(=O)N(c3cccc(F)c3)C2)c1` (stereo not shown) was 8.91%; that for `CNC(=O)C(=O)Nc1ccc2c(c1)N(S(=O)(=O)c1cccs1)CCC2` was -4.69%.
